40 sequences from paper PMC12820563 can be followed below.

The other results are listed elsewhere or left out. The list includes weakly bound sequences.

In the experiment the target is T1, MBP-FoxP3dN (UniProt Q99JB6).
T1 sequence: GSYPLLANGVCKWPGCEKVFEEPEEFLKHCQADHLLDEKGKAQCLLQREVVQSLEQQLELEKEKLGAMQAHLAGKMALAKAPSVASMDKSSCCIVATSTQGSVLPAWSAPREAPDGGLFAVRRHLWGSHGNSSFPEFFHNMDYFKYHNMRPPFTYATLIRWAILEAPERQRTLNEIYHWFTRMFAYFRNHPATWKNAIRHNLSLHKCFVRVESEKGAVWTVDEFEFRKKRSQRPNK
As to the kind of experiment: PD-seq (MBP pull-down with sequencing). The settings on record: 20 mM Tris-HCl pH 7.5, 100 mM NaCl, 1.5 mM MgCl2, 0.4 uM protein, 0.1 uM dsDNA library, 30 min, room temperature, amylose pull-down; high values mean tight binding; double strand, one strand shown.
Regarding “GATGATTGTTCTCCCAGCTGATGAATTAGGTTATTCGAGTAAACAAATTTTCCTAATCTTTCTGTTCAAGCGCCATCTAC”, the binding signal (RPM ratio (pull-down/input)) came to 2.12.

As to “GATGATTGTTCTCCCAGCTGATGAATTCATTTTGTCGAGTAAACAAATTTTCCTAATCTTTCTGTTCAAGCGCCATCTAC”, the binding signal (RPM ratio (pull-down/input)) was 1.9.

Regarding “GATGATTGTTCTCCCAGCTGATGAATTCCTTTCTTCGAGTAAACAAATTTTCCTAATCTTTCTGTTCAAGCGCCATCTAC”, the binding signal (RPM ratio (pull-down/input)) is 0.297.

Regarding “GATGATTGTTCTCCCAGCTGATGAATTCAATAGTTCGAGTAAACAAATTTTCCTAATCTTTCTGTTCAAGCGCCATCTAC”, the binding signal (RPM ratio (pull-down/input)) came to 1.5.

“GATGATTGTTCTCCCAGCTGATGAATTATAGCAGTCGAGTAAACAAATTTTCCTAATCTTTCTGTTCAAGCGCCATCTAC”: the binding signal (RPM ratio (pull-down/input)) turned out to be 0.531.

For “GATGATTGTTCTCCCAGCTGATGAATTGGACCCTTCGAGTAAACAAATTTTCCTAATCTTTCTGTTCAAGCGCCATCTAC”, the binding signal (RPM ratio (pull-down/input)) was found to be 0.255.

Consider “GATGATTGTTCTCCCAGCTGATGAATTTGGGGACTCGAGTAAACAAATTTTCCTAATCTTTCTGTTCAAGCGCCATCTAC”, for which the binding signal (RPM ratio (pull-down/input)) was 0.516.

“GATGATTGTTCTCCCAGCTGATGAATTAACCCTATCGAGTAAACAAATTTTCCTAATCTTTCTGTTCAAGCGCCATCTAC”: the binding signal (RPM ratio (pull-down/input)) was found to be 0.322.

For the sequence “GATGATTGTTCTCCCAGCTGATGAATTGTCTAACTCGAGTAAACAAATTTTCCTAATCTTTCTGTTCAAGCGCCATCTAC”, the binding signal (RPM ratio (pull-down/input)) was determined as 0.395.

Take “GATGATTGTTCTCCCAGCTGATGAATTACAAATTTCGAGTAAACAAATTTTCCTAATCTTTCTGTTCAAGCGCCATCTAC”: the binding signal (RPM ratio (pull-down/input)) worked out at 0.415.

Take “GATGATTGTTCTCCCAGCTGATGAATTACACTTCTCGAGTAAACAAATTTTCCTAATCTTTCTGTTCAAGCGCCATCTAC”: the binding signal (RPM ratio (pull-down/input)) was found to be 0.637.

In the case of “GATGATTGTTCTCCCAGCTGATGAATTACGTCATTCGAGTAAACAAATTTTCCTAATCTTTCTGTTCAAGCGCCATCTAC”, the binding signal (RPM ratio (pull-down/input)) was 1.44.

In the case of “GATGATTGTTCTCCCAGCTGATGAATTAGACCGCTCGAGTAAACAAATTTTCCTAATCTTTCTGTTCAAGCGCCATCTAC”, the binding signal (RPM ratio (pull-down/input)) was determined as 0.274.

For the sequence “GATGATTGTTCTCCCAGCTGATGAATTGCTCTGATCGAGTAAACAAATTTTCCTAATCTTTCTGTTCAAGCGCCATCTAC”, the binding signal (RPM ratio (pull-down/input)) was determined as 0.445.

For the sequence “GATGATTGTTCTCCCAGCTGATGAATTCGATCACTCGAGTAAACAAATTTTCCTAATCTTTCTGTTCAAGCGCCATCTAC”, the binding signal (RPM ratio (pull-down/input)) was 0.483.

Consider “GATGATTGTTCTCCCAGCTGATGAATTGTTTTGATCGAGTAAACAAATTTTCCTAATCTTTCTGTTCAAGCGCCATCTAC”, for which the binding signal (RPM ratio (pull-down/input)) was determined as 4.03.

For “GATGATTGTTCTCCCAGCTGATGAATTCGTATTATCGAGTAAACAAATTTTCCTAATCTTTCTGTTCAAGCGCCATCTAC”, the binding signal (RPM ratio (pull-down/input)) was 1.51.

“GATGATTGTTCTCCCAGCTGATGAATTCTGCCGATCGAGTAAACAAATTTTCCTAATCTTTCTGTTCAAGCGCCATCTAC”: the binding signal (RPM ratio (pull-down/input)) came to 0.58.

In the case of “GATGATTGTTCTCCCAGCTGATGAATTGTTGAGTTCGAGTAAACAAATTTTCCTAATCTTTCTGTTCAAGCGCCATCTAC”, the binding signal (RPM ratio (pull-down/input)) is 0.89.

As for “GATGATTGTTCTCCCAGCTGATGAATTACACAATTCGAGTAAACAAATTTTCCTAATCTTTCTGTTCAAGCGCCATCTAC”, the binding signal (RPM ratio (pull-down/input)) is 0.716.

As for “GATGATTGTTCTCCCAGCTGATGAATTCCAGTCATCGAGTAAACAAATTTTCCTAATCTTTCTGTTCAAGCGCCATCTAC”, the binding signal (RPM ratio (pull-down/input)) is 0.476.

As to “GATGATTGTTCTCCCAGCTGATGAATTGTGCATCTCGAGTAAACAAATTTTCCTAATCTTTCTGTTCAAGCGCCATCTAC”, the binding signal (RPM ratio (pull-down/input)) worked out at 8.03.

For “GATGATTGTTCTCCCAGCTGATGAATTCGACTTTTCGAGTAAACAAATTTTCCTAATCTTTCTGTTCAAGCGCCATCTAC”, the binding signal (RPM ratio (pull-down/input)) was 0.443.

On to “GATGATTGTTCTCCCAGCTGATGAATTCAACTTGTCGAGTAAACAAATTTTCCTAATCTTTCTGTTCAAGCGCCATCTAC”, for which the binding signal (RPM ratio (pull-down/input)) is 0.487.

As to “GATGATTGTTCTCCCAGCTGATGAATTATGGCTCTCGAGTAAACAAATTTTCCTAATCTTTCTGTTCAAGCGCCATCTAC”, the binding signal (RPM ratio (pull-down/input)) was determined as 0.643.

Take “GATGATTGTTCTCCCAGCTGATGAATTCGCGACATCGAGTAAACAAATTTTCCTAATCTTTCTGTTCAAGCGCCATCTAC”: the binding signal (RPM ratio (pull-down/input)) came out at 0.724.

Regarding “GATGATTGTTCTCCCAGCTGATGAATTAATCCGGTCGAGTAAACAAATTTTCCTAATCTTTCTGTTCAAGCGCCATCTAC”, the binding signal (RPM ratio (pull-down/input)) was determined as 0.162.

As for “GATGATTGTTCTCCCAGCTGATGAATTACTATCATCGAGTAAACAAATTTTCCTAATCTTTCTGTTCAAGCGCCATCTAC”, the binding signal (RPM ratio (pull-down/input)) was 0.666.

“GATGATTGTTCTCCCAGCTGATGAATTTACTGAGTCGAGTAAACAAATTTTCCTAATCTTTCTGTTCAAGCGCCATCTAC”: the binding signal (RPM ratio (pull-down/input)) is 0.302.

Consider “GATGATTGTTCTCCCAGCTGATGAATTGAGCTTATCGAGTAAACAAATTTTCCTAATCTTTCTGTTCAAGCGCCATCTAC”, for which the binding signal (RPM ratio (pull-down/input)) was 1.25.

“GATGATTGTTCTCCCAGCTGATGAATTAGGGACTTCGAGTAAACAAATTTTCCTAATCTTTCTGTTCAAGCGCCATCTAC”: the binding signal (RPM ratio (pull-down/input)) turned out to be 0.523.

With “GATGATTGTTCTCCCAGCTGATGAATTGACTTTATCGAGTAAACAAATTTTCCTAATCTTTCTGTTCAAGCGCCATCTAC”, the binding signal (RPM ratio (pull-down/input)) is 0.608.

For the sequence “GATGATTGTTCTCCCAGCTGATGAATTCAGTGACTCGAGTAAACAAATTTTCCTAATCTTTCTGTTCAAGCGCCATCTAC”, the binding signal (RPM ratio (pull-down/input)) was 0.828.

As to “GATGATTGTTCTCCCAGCTGATGAATTCAAATTTTCGAGTAAACAAATTTTCCTAATCTTTCTGTTCAAGCGCCATCTAC”, the binding signal (RPM ratio (pull-down/input)) came to 0.27.

As to “GATGATTGTTCTCCCAGCTGATGAATTGAATATCTCGAGTAAACAAATTTTCCTAATCTTTCTGTTCAAGCGCCATCTAC”, the binding signal (RPM ratio (pull-down/input)) is 0.605.

With “GATGATTGTTCTCCCAGCTGATGAATTCTCATACTCGAGTAAACAAATTTTCCTAATCTTTCTGTTCAAGCGCCATCTAC”, the binding signal (RPM ratio (pull-down/input)) is 0.405.

For the sequence “GATGATTGTTCTCCCAGCTGATGAATTGAAGCGGTCGAGTAAACAAATTTTCCTAATCTTTCTGTTCAAGCGCCATCTAC”, the binding signal (RPM ratio (pull-down/input)) was 0.318.

As to “GATGATTGTTCTCCCAGCTGATGAATTATATCCGTCGAGTAAACAAATTTTCCTAATCTTTCTGTTCAAGCGCCATCTAC”, the binding signal (RPM ratio (pull-down/input)) was 0.399.

“GATGATTGTTCTCCCAGCTGATGAATTAATAGGTTCGAGTAAACAAATTTTCCTAATCTTTCTGTTCAAGCGCCATCTAC”: the binding signal (RPM ratio (pull-down/input)) worked out at 0.487.

For the sequence “GATGATTGTTCTCCCAGCTGATGAATTGCCCCCCTCGAGTAAACAAATTTTCCTAATCTTTCTGTTCAAGCGCCATCTAC”, the binding signal (RPM ratio (pull-down/input)) stood at 0.434.
